Source: PubChem BioAssay AID1963576 (National Center for Advancing Translational Sciences (NCATS), 2024)
The whole screen tested about 46,000 compounds, of which about 60 (0.1%) were called active. The inconclusive results got no clear call from the source; some entries with a clear call stand among them for comparison. Calls follow the shape of the dose curve; as a rule, active = well fitted inhibition curve with a large enough effect; inconclusive = small, poorly fitted or top-dose-only effect; inactive = no such curve, though single readings can be large or run the other way. Where the call is inconclusive, the potency comes from a doubtful curve fit.

test: Primary qHTS assay for Inhibitors of ovarian cancer metastasis using an organotypic tumor microenvironment (TME) model.; also: nearly all actives have a fitted effect of over 65% in size;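 as to potency: count of GFP cancer cells still attached after washing and fixation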; details: SKOV3ip1-GFP adhesion/invasion on 3D omental model, fluorescence; series mostly up to 45.8 µM
How it was run: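 qHTS, 4-pt dose (0.36-46 umol/L); SKOV3ip1-GFP, 1,200 cells/well, no FBS; primary omental fibroblast/mesothelial co-culture 48 h pre-grown; 2 h RT + 16 h 37 C; PBS wash, 4% PFA; GFP count 488/509 nm.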
Potency is read from the fitted curve at half-maximal effect; tags tell the direction and shape of the fitted curve.

Potency, inconclusive:
CN(C(=O)CSc1nncn2c1cc1occc12)c1ccccc1 35.5 µM [inhibitor, single point]
COc1cc([C@@H]2c3cc4c(cc3[C@@H](O[C@@H]3O[C@@H]5CO[C@@H](c6cccs6)O[C@@H]5[C@H](O)[C@@H]3O)[C@H]3COC(=O)[C@H]23)OCO4)cc(OC)c1O 2.96 µM [inhibitor, full curve]
Cc1nn(-c2ccccc2)c(OC(=O)c2cccc(Br)c2)c1S(=O)(=O)c1ccccc1 7.08 µM [inhibitor, partial curve, poor fit]
COc1ccccc1CN1CCC(CNS(=O)(=O)c2cc(-c3onc(C)c3C)ccc2OC)CC1 35.5 µM [inhibitor, single point]
CCOC(=O)c1[nH]c(C)c(CCC(=O)Nc2ccccc2OCC)c1C 35.5 µM [inhibitor, single point]
CCN(CC)c1ccc(NS(=O)(=O)c2cc(-c3onc(C)c3C)ccc2OC)c(C)c1 35.5 µM [inhibitor, partial curve, poor fit]
CC1CCN(CCCNC(=O)CN2C(=O)CSc3ccc(S(=O)(=O)N4CCC(C)CC4)cc32)CC1 2.82 µM [inhibitor, partial curve, poor fit]
COc1ccc(CNC(=O)CN(c2ccc(C)cc2)S(=O)(=O)c2c(C)noc2C)cc1 7.08 µM [inhibitor, partial curve, poor fit]
COc1ccc(C2=C(C(C)=O)Sc3nnc(-c4ccc(Cl)cc4)n3N2C(C)=O)cc1OC 3.98 µM [inhibitor, full curve]
Cc1ccccc1-c1ccnc2[nH]n(-c3ccccc3)c(=O)c12 35.5 µM [inhibitor, single point]
CC1CCCN(CCCNC(=O)c2ccc3c(c2)N(Cc2cccc(Cl)c2)C(=O)c2ccccc2S3(=O)=O)C1 (stereo not given) 22.4 µM [inhibitor, single point]
CCCCS(=O)(=O)c1oc(-c2cccs2)nc1S(=O)(=O)c1ccc(F)cc1 3.16 µM [inhibitor, full curve, poor fit]
Cc1cnc(Nc2ccc(F)cc2Cl)nc1-c1c[nH]c(C(=O)N[C@H](CO)c2cccc(Cl)c2)c1 37.2 µM [inhibitor, single point]
CCOc1ccc(NC(=O)C2CCCN(c3cnccn3)C2)cc1 (stereo not given) 5.62 µM [inhibitor, full curve, poor fit]
C#CCN1C(=O)C(O)(CC(=O)c2ccc(OC)c(OC)c2)c2cc(Br)ccc21 (stereo not given) 35.5 µM [inhibitor, single point]
COc1ccccc1N1CCN(C(=O)CSc2nc3ccccc3nc2Cc2ccc(F)cc2)CC1 35.5 µM [inhibitor, single point]
Cc1sc2c(c1C)c(=O)n(-c1ccccc1)c(=O)n2CC(=O)c1ccc(Cl)cc1 5.62 µM [inhibitor, full curve, poor fit]
Cc1c(-c2nsc(NC(=O)c3cccs3)n2)nnn1-c1ccc(Cl)cc1 12.6 µM [inhibitor, single point]
CCOC(=O)c1cc(-c2ccccc2)n(CC(=O)Nc2cc(Cl)c(OC)cc2OC)c1C 35.5 µM [inhibitor, single point]
CCN(CC)CCOC(=O)c1ccc(NC(=O)c2nn(C)c3c2COc2ccccc2-3)cc1 35.5 µM [inhibitor, single point]
COCCn1c2c([n+](Cc3cnccn3)c1C)C(=O)c1ccccc1C2=O 0.148 µM [inhibitor, full curve]
Cc1ccc(Nc2c(-c3ccc(Cl)cc3)nc3sccn23)c(C)c1 7.08 µM [inhibitor, full curve, poor fit]
Cc1ccc(S(=O)(=O)N2CCc3cc(C(=O)Nc4ccc(C(F)(F)F)cc4)ccc32)cc1 35.5 µM [inhibitor, single point]
CC1CCCCN1CCCNC(=O)c1[nH]c2ccccc2c1Sc1ccc(Cl)cc1 (stereo not given) 22.4 µM [inhibitor, partial curve, poor fit]
Cc1c(Cl)cccc1NC(=O)Cn1cc(C(=O)C2CCCCC2)c2ccccc21 35.5 µM [inhibitor, single point]
COc1cccc(C2=C(C(C)=O)Sc3nnc(C4CCCCC4)n3N2C(C)=O)c1 22.4 µM [inhibitor, single point]
CC1CCCCN1CCCNC(=O)c1ccc2c(c1)sc1nc(-c3ccc(F)cc3)cn12 (stereo not given) 35.5 µM [inhibitor, single point]
Cc1cc(C)cc(NC(=O)Cn2nnc(C(=O)NCc3ccccc3Cl)c2N)c1 35.5 µM [inhibitor, single point]
Cc1cccc(Nc2nc(N[C@@H]3CCCC[C@H]3N)ncc2C(N)=O)c1 23.5 µM [inhibitor, single point]
COc1ccc(OC)c(NC(=O)c2c(NCc3ccc(C)o3)sc3c2CCCCC3)c1 35.5 µM [inhibitor, single point]
Cc1cc(NC(=O)c2oc3c(c2C)-c2[nH]ncc2CC3)ccc1Br 15.8 µM [inhibitor, single point]
CCC(C)n1c(SCc2ccc(F)cc2Cl)nc2ccsc2c1=O (stereo not given) 35.5 µM [inhibitor, single point]
CCN1C(=O)c2ccccc2Sc2ccc(NC(=O)Nc3cc(C)cc(C)c3)cc21 3.16 µM [inhibitor, full curve]
CCCC1=Nc2cc(C(=O)NCc3ccccc3)ccc2Sc2ccccc21 11.2 µM [inhibitor, single point]
COc1cc(OC)cc(C(=O)Nc2ccc3c(c2)CCCN3C(=O)c2cccs2)c1 4.47 µM [inhibitor, partial curve]
CCC(=O)C1=C(c2ccccc2)N(C(=O)CC)n2c(nnc2-c2ccccc2)S1 25.1 µM [inhibitor, single point]
CCC(Oc1ccc(F)cc1)C(=O)Nc1nc2c(s1)CCCC2 (stereo not given) 11.2 µM [inhibitor, partial curve, poor fit]
C=Cc1ccc(Cn2c(C(=O)O)c(CNCCc3ccccc3)c3ccc(C)cc32)cc1 31.6 µM [inhibitor, single point]
Cc1nn(CCCC(=O)NCc2ccccc2Br)c(=O)c2c1sc1ccccc12 35.5 µM [inhibitor, single point]
CCOc1ccc(CCNC(=O)c2ccc(-n3c(C)cc4c3CCCC4)cc2)cc1OCC 35.5 µM [inhibitor, single point]
CCCCc1ccc(-n2nc3ccc(NC(=O)c4cc5ccccc5o4)cc3n2)cc1 17.8 µM [inhibitor, single point]
Cc1cccc(-c2nc(SCc3cc(=O)c4c(C)cc(C)cc4[nH]3)n[nH]2)c1 20 µM [inhibitor, single point]
O=C(Cn1nc2c(cc1=O)CCCC2)NCc1ccc(Cl)cc1 11.2 µM [inhibitor, single point]

Potency, inactive:
COc1ccc(CCNc2ncnc3c2cnn3-c2ccc(F)cc2)cc1
C[C@@]1(c2cc(-c3cncnc3)c(F)cc2F)CCSC(N)=N1
COc1ccc(-c2cc(C(=O)Nc3cccc(C(C)=O)c3)no2)cc1OC
c1cc(-c2cnn3cc(-c4ccc(OCCN5CCCCC5)cc4)cnc23)ccn1
O=C(Nc1ccc(C(=O)N2CCCCC2)cc1)c1nsc2ccccc12
N#CC1=C2SCN(C3CCCCC3)CN2C(=O)CC1c1ccc(Br)cc1 (stereo not given)
c1ccc(-c2cc3ncc4c(n3n2)-c2ccccc2OC4)cc1
CC(=O)Nc1ccc(NC(=O)CSc2nccn2Cc2ccc3c(c2)OCO3)cc1
CCN(CC)CCOc1ccc(C(=C(Cl)c2ccccc2)c2ccccc2)cc1
CC(C)COc1ccc(C(=O)Nc2onc3c2CCCC3)cc1
Cc1cc(C)cc(NC(=O)c2ccc3c(c2)nnn3C2CCCC2)c1
COc1ccc(-c2onc(C)c2C)cc1S(=O)(=O)NCC(C)c1ccccc1 (stereo not given)
Cc1ccc(NC(=O)CSc2ncc(S(=O)(=O)c3ccc(C(C)C)cc3)c(=O)[nH]2)cc1C
O=c1[nH]nc(OCCCc2ccc(Cl)cc2)c(NCc2cccnc2)c1Br
CCC(C(=O)Nc1cc(OC)ccc1OC)n1c(=O)c(C(F)(F)F)nc2ccccc21 (stereo not given)
CCCCOC(=O)c1ccc(NC(=O)c2ccc3c(c2)CCCN3S(C)(=O)=O)cc1
O=c1c(NCc2cccs2)nccn1-c1ccccc1
COc1cc(NS(=O)(=O)c2ccc3[nH]c4c(c3c2)CCCC4)cc(OC)c1OC
Cc1ccc(Cl)cc1N1CCN(C(=O)c2ccc(CS(=O)(=O)c3ccc(Br)cc3)o2)CC1
O=C(CSc1nc(=O)n(CCN2CCOCC2)c2c1CCC2)Nc1cccc(Cl)c1
Cc1ccc(C2=CC(c3ccc(Cl)cc3)n3nc(-c4ccc(C)cc4)nc3N2)cc1 (stereo not given)

Potency, active:
O=c1[nH]nc(Sc2ncc([N+](=O)[O-])s2)n1-c1ccc2c(c1)OCCO2 14.8 µM
